Results on 6 molecules are retold here after patent US20250026806A1 (HANGZHOU SUMGEN BIOTECH, published 2025).

The target of experiment [1] is T1, His-CD47 (CD47 Protein, Human, Recombinant (ECD, His Tag), SinoBiological) (human, UniProt Q08722 part only, limits assumed).
T1 construct: extracellular domain; Bought reagent; also called target antigen His-CD47; not shown: His tag
The experiment can be described thus: SPR Biacore T200, fusion protein captured by anti-human Fc, His-CD47 as analyte, 1:1 model.

Experiment [2] has as its target T2, CD47 on the surface of Raji cells and A549 cells (UniProt Q08722).
T2 construct: whole, on cells; Raji and A549 are human cell lines; also called CD47 molecules on the surface of tumor cells
The experiment can be described thus: flow cytometry on Raji cells, PE anti-human IgG Fc secondary antibody. (In flow cytometry, cells or beads pass a laser one at a time.)

Experiment [3] concerns the target T2, CD47 on the surface of Raji cells and …. The experiment can be described thus: flow cytometry on A549 cells, PE anti-human IgG Fc secondary antibody.

B1: SS002 (fusion protein of wild-type SIRPα truncated domain and human IgG1-Fc) (Fc fusion)
chain: ELQVIQPDKSVLVAAGETATLRCTATSLIPVGPIQWFRGAGPGRELIYNQKEGHFPRVTTVSDLTKRNNMDFSIRIGNITPADAGTYYCVKFRKGSPDDVEFKSGAGTELSVRAKPS[letters of human IgG1 Fc omitted]
notes: The order (SIRPα N-terminal of Fc) comes from the general description
As a reminder, the Kd is the free concentration of one partner at which half of the binding sites on the other are occupied at equilibrium, for simple one-to-one binding. As a reminder, the koff is the first-order rate constant of dissociation. Usually kon stands for the second-order rate constant of association. A word on the EC50 (read off the curve): it is the concentration at which the effect is half-maximal. High values mean a less potent agent, low ones a more potent agent. With B1, in experiment [1], the Kd was found to be 19.5 nM, the koff amounted to 0.00639 s⁻¹ and the kon came to 327000 M⁻¹ s⁻¹. Besides, the “EC50 (read off the curve)” value in experiment [2] was around 0.4 µg/mL.

B2: SS002m84N (SIRPα variant m84N - IgG1-Fc fusion protein) (Fc fusion)
chain: ELQVIQPDKSVLVAAGETATLRCTATSLFPVGPIQWFRGAGPGRELIYNQKEGHFPRVTTVSHSTRRNNMDFSIRIHAITPADAGTYYCVKFRKGSPDDSEFKSGAGTELSVRAKPS[letters of human IgG1 Fc omitted]
notes: No linker is stated
In the case of B2, in experiment [1], the Kd was 9.18 nM, the koff is 0.00209 s⁻¹ and the kon worked out at 227000 M⁻¹ s⁻¹.

B3: SS002m91N (SIRPα variant m91N - IgG1-Fc fusion protein) (Fc fusion)
chain: ELQVIQPDKSVLVAAGETATLRCTATSLLPVGPIQWFRGAGPGRQLIYNQKDGHFPRVTTASDLTKRNNMDFSINIGAITPADAGTYYCVKFRKGSPDDIEFKSGAGTELSVRAKPS[letters of human IgG1 Fc omitted]
notes: No linker is stated
For B3, in experiment [1], the Kd amounted to 4.23 nM, the koff came to 0.000829 s⁻¹ and the kon was found to be 196000 M⁻¹ s⁻¹.

B4: SS002m5N (SIRPα variant m5N - IgG1-Fc fusion protein) (Fc fusion)
chain: ELQVIQPDKSVLVAAGETATLRCTATSLVPVGPIQWFRGAGPGRNLIYNSRHGHFPRVTTVSDLTKRNNMDFSIRIGAITPADAGTYYCVKFRKGSPDDVEFKSGAGTELSVRAKPS[letters of human IgG1 Fc omitted]
notes: No linker is stated
As for B4, in experiment [1], the Kd was found to be 19.9 nM, the koff is 0.00646 s⁻¹ and the kon is 324000 M⁻¹ s⁻¹.

B5: SS002m82N (SIRPα variant m82N - IgG1-Fc fusion protein) (Fc fusion)
chain: ELQVIQPDKSVLVAAGETATLRCTATSLFPVGPIQWFRGAGPGRELIYNQKEGHFPRVTTVSHSTKRNNMDFSIRIHAITPADAGTYYCVKFRKGSPDDSEFKSGAGTELSVRAKPS[letters of human IgG1 Fc omitted]
notes: No linker is stated
On to B5, for which, in experiment [1], the Kd was determined as 10.8 nM, the koff is 0.00278 s⁻¹ and the kon was 257000 M⁻¹ s⁻¹.

B6: SS002m12N (SIRPα variant m12N - IgG1-Fc fusion protein) (Fc fusion)
chain: ELQVIQPDKSVVVAAGETATLRCTATSLFPVGPIQWFRGAGPGRILIYNRRQGHFPRVTTVSDLTKRNNMDFSIRIGAITPADAGTYYCVKFRKGSPDDIEFKSGAGTELSVRAKPS[letters of human IgG1 Fc omitted]
notes: No linker is stated
Take B6: in experiment [1], the Kd stood at 13.4 nM, the koff stood at 0.00445 s⁻¹ and the kon turned out to be 333000 M⁻¹ s⁻¹. Besides, the half-maximal effective concentration (EC50 (read off the curve)) in experiment [2] was around 0.05 µg/mL. Moreover, the “EC50 (read off the curve)” value in experiment [3] was around 0.2 µg/mL.
